From PubChem BioAssay AID1347073 (National Center for Advancing Translational Sciences (NCATS), 2019)
The whole screen tested about 45,000 compounds, of which about 200 (0.44%) were called active. Another 7% or so got no clear call; they are omitted. Calls come from the whole dose curve; as a rule, active = well fitted activation curve with a large enough effect; inconclusive = small, poorly fitted or top-dose-only effect; inactive = no such curve, though single readings can be large or run the other way. The list shows a part of the results.

Assay: qHTS of TDP-43 Inhibitors: NCGC Sytravon Library Screen; note: 0% is about no effect; nearly all actives have a fitted effect of over 55% in size
Conditions: yeast TDP-43 toxicity rescue, BacTiter-Glo growth, 24 h; series mostly up to 46.1 µM; growth rescue (activation): at the top concentration
How it was run: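 TDP-43-expressing yeast, pregrown in raffinose, seeded at OD600 0.02 in galactose medium with compound for 24 hr at 30 deg C. Growth read by BacTiter-Glo luminescence, so rescue of toxicity appears as activation.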

Compound | growth rescue (activation)
CC(c1nccs1)N(C)C(=O)CCc1nnc(CCc2ccccc2)o1 (centres undefined) | inactive: 3.33%
O=C(O)c1nn(CC(=O)N2CCN(c3ncc(C(F)(F)F)cc3Cl)CC2)c(=O)c2ccccc12 | inactive: 1.63%
COc1cc(NC(=O)c2cccs2)cc(OC)c1 | inactive: -22.9%
COc1cc(C(=O)NC(C)Cc2cccs2)cc(OC)c1OC (centres undefined) | inactive: -4.72%
CC(=O)Nc1ccc(S(=O)(=O)N(C)CC(=O)OCC(=O)NC(C)C23CC4CC(CC(C4)C2)C3)cc1 (centres undefined) | inactive: 3.28%
C/C(=N\Nc1nc2ccccc2c(=O)n1O)c1ccco1 | inactive: 1.91%
COc1ccc(N2CCOCC2)c(NC(=O)c2ccc3c(c2)OCO3)c1 | inactive: 14.1%
COc1ccc(-c2cn3cc(Br)cnc3n2)cc1 | inactive: 3.96%
Cn1cccc1C(=O)NC(=O)COC(=O)CNS(=O)(=O)c1ccc(Br)cc1 | inactive: 8.36%
COc1ccc(OCCn2cnc(Cl)c2Cl)cc1 | inactive: 24.9%
Cc1ccc(CN(C(=O)c2csnn2)C(C(=O)NC2CCCC2)c2ccco2)cc1 (centres undefined) | inactive: 2.42%
CC(=O)c1cc2c(cc1NS(=O)(=O)c1cccc(C(=O)O)c1)OCO2 | inactive: -15.3%
COC(=O)Cc1c(C(=O)OC)nnn1-c1ccc(OC(F)(F)F)cc1 | inactive: 1.05%
Nc1c(C(=O)OCC(=O)Nc2cccc([N+](=O)[O-])c2)[nH]c(=O)[nH]c1=O | inactive: 1.22%
COc1ccc(S(=O)(=O)NCCc2cc3ccc(C)c(C)c3[nH]c2=O)cc1 | inactive: -6.09%
COc1ccc(S(=O)(=O)N(CC(=O)NCCC(C)C)c2ccccc2)cc1OC | inactive: -4.55%
CCNC(=O)C1(C)CCN(C(=O)c2ccc(C#N)cc2)C1 (centres undefined) | inactive: -2.56%
CCOC(=O)C1(CC2CC2)CCN(C(=O)c2cc(OC)nc3ccccc23)CC1 | inactive: 24.5%
COc1ccc(-c2nc(C)sc2CC(=O)O)cc1OC | inactive: 7.89%
Cc1ccc(-c2sc(-c3ccccc3)nc2CC(=O)Nc2ccccc2F)cc1 | inactive: 3.08%
COc1ccc(C(=O)NCCNC(=O)c2ccccn2)cc1 | inactive: -7.8%
Cc1ccc(NC(=O)Nc2ccnc(-c3cccnc3)n2)cc1 | inactive: 17.4%
O=C(CCc1ccccc1)NCCSc1ccccc1 | inactive: 27.8%
O=C(Nc1ccc(N2CCCC2)c(Cl)c1)c1cccc(-c2cc3ccccc3oc2=O)c1 | inactive: 23%
COc1ccc(C2CC(=O)C3=C(C2)NC(C)=C(C#N)C3c2ccc(N(C)C)cc2)cc1 (centres undefined) | inactive: 5.51%
Cn1c(=O)n(C)c2cc(NS(=O)(=O)c3ccc(F)cc3)ccc21 | inactive: -0.43%
CCOc1ccc(NC(=S)N2CCN(S(=O)(=O)c3ccc(OC)cc3)CC2)cc1 | inactive: 17.6%
Cc1cc(C)n2c(Nc3ccc(Cl)cc3)c(-c3ccsc3)nc2n1 | inactive: 14.7%
Cc1nn(Cc2ccccc2)c(C)c1NC(=O)CSc1nc(-c2ccccc2)nc2c1cnn2-c1ccccc1 | inactive: 37.5%
